Test results: paper PMC4336329 (PLoS ONE, 2015)
The whole screen tested about 310,000 compounds, of which about 14,000 (4.5%) showed an effect of 50% or more. The effect is printed as a negative number. The list shows a part of the results.

Target: human ether-à-go-go-related gene (hERG) potassium channel (human, UniProt Q12809)
Assay: primary screen, population patch clamp on CHO cells stably expressing hERG
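Also: peak tail current of the secondary pulse compared with the same well before compound.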

Sequence of human ether-à-go-go-related gene (hERG) potassium channel (Q12809 whole entry, looked up): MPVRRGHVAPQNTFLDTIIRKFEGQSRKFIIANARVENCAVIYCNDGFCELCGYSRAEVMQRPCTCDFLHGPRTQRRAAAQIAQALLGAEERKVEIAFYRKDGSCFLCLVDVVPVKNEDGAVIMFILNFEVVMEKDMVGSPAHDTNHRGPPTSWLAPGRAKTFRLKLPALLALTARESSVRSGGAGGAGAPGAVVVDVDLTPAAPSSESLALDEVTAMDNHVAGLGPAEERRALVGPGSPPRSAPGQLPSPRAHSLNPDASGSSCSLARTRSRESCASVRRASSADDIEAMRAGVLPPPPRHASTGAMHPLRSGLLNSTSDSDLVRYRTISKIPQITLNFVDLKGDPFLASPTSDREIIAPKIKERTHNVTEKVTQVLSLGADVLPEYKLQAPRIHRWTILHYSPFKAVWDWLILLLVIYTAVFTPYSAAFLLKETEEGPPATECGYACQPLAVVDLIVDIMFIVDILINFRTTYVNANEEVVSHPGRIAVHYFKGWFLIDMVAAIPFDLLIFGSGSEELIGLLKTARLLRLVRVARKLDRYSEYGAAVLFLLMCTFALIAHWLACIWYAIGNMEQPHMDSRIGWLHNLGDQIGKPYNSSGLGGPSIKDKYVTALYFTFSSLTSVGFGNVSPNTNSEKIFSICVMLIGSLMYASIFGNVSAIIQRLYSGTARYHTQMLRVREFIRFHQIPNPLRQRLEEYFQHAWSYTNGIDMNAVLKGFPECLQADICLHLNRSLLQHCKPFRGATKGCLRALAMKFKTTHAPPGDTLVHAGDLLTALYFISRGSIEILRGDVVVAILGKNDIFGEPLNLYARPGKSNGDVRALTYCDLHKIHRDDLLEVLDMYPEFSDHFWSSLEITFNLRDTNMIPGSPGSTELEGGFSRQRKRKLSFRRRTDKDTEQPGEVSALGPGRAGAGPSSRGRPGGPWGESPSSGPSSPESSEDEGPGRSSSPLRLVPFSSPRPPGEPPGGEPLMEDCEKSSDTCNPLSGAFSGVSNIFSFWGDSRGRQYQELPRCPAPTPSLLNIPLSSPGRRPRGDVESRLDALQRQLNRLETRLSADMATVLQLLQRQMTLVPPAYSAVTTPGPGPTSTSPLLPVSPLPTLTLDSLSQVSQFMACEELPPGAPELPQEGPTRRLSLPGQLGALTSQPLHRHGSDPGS

Structure (SMILES) | hERG current change (%, negative = inhibition) at 10uM [%]
Cc1ccc(NC(=O)C2CCCN(S(=O)(=O)c3c(C)noc3C)C2)cc1F (centres unmarked) | 5.62
CC1CCc2c(nc3ncnn3c2N2CC(C)OC(C)C2)C1 (centres unmarked) | 7.65
COc1ccc(CNC(=O)CS(=O)(=O)Cc2nc(-c3cccc(OC)c3)oc2C)cc1 | -32.4
O=C1NCC(COc2ccc(Cl)cc2)O1 (centres unmarked) | 48.4
O=C(c1ccoc1)N1CCC2(CC1)Oc1ccc(F)cc1C(=O)C21CC(c2cccnc2)=NO1 (centres unmarked) | -48.4
CCOCC(O)CNC(=O)c1ccc(OC2CCN(C(=O)c3cccnc3)CC2)cc1 (centres unmarked) | 23.9
CCOC(=O)N1CCN(S(=O)(=O)N2CCCC(C(=O)NCCCN3CCCCC3CC)C2)CC1 (centres unmarked) | 8.29
COC(=O)c1ccc(NC(=O)CSc2nnc(-c3ccccc3)n2C)cc1 | 14
COc1cccc(NC(=O)c2ncc(Cl)c(Cl)c2Cl)c1 | 8.12
O=C(COC(=O)c1ccc(NS(=O)(=O)c2ccc3c(c2)OCCO3)cc1)NC1CC1 | -1.56
Clc1cc(Br)ccc1OCCOCCN1CCOCC1 | -36.7
CCCCn1c(N)c(N(CC(C)C)C(=O)c2cnc(C)cn2)c(=O)[nH]c1=O | 0.974
Cn1cc(CNCc2ccc(-n3cccn3)cc2)c(-c2ccccc2F)n1 | -62.2
O=C(NCc1ccc2c(c1)OCO2)c1cc2n(n1)C(C(F)(F)F)CC(c1ccc3c(c1)OCO3)N2 (centres unmarked) | 3.58
O=C(O)C1C2CCC(C2)C1C(=O)NCCC1=CCCCC1 (centres unmarked) | 14.9
CCc1nc(SCc2nc3ccccc3[nH]2)c2oc3ccccc3c2n1 | 6.59
CCOC(=O)C1=NN(C(=O)Cc2ccccc2)C(O)(c2ccc(Cl)cc2)C1 (centres unmarked) | -47.6
O=C(Cc1ccc(Br)cc1)NCCc1ccc(Cl)cc1Cl | -0.437
O=C(O)c1ccc(C2Nc3ccccc3C(=O)N2Cc2ccccc2)cc1 (centres unmarked) | 7.71
CCC(Sc1ccc2nnc(-c3cccnc3)n2n1)C(=O)OC (centres unmarked) | -47
CCOC(=O)c1c(C)[nH]c(C)c1C(=O)CSc1nnc(-c2ccncc2)n1C | 4.24
O=C(O)C1CC=CCC1C(=O)NCc1ccc2c(c1)OCO2 (centres unmarked) | -1.3
Cc1nc(C)c(C(=O)N2CCCC(C(=O)c3ccc(Cl)cc3C)C2)s1 (centres unmarked) | -23

Structure (SMILES) | hERG current change (%, negative = inhibition) at 10uM [%]
COc1ccc(/C=N/n2cnnc2)cc1COc1ccccn1 | -6.33
CSc1ccc(CN2CCN(C(C)C)C(CCO)C2)cc1 (centres unmarked) | -24
O=C(c1ccc(-c2ccc([N+](=O)[O-])cc2)o1)N1CCN(S(=O)(=O)c2cccs2)CC1 | -27.3
CCOc1ccc(NC(=S)NC(=O)c2c(Cl)cnn2CC)c([N+](=O)[O-])c1 | 19.8
CC(C#N)(Cc1ccccc1)Nc1ccccc1 (centres unmarked) | 17.6
O=C(Nc1ccc2c(c1)OCCO2)c1ccc(NC(=O)C2CCCO2)cc1 (centres unmarked) | 14.1
CC(C)c1ccc(NC(=O)C2C3C=CC4(O3)C2C(=O)N(CCN2CCOCC2)C4C(=O)NC2CCCCC2)cc1 (centres unmarked) | 15.3
CC1CCN(CCCNC(=O)CCCNC(=O)Cn2cnc3sc4c(c3c2=O)CCCC4)CC1 | 12.3
Cl.O=S(=O)(c1ccc2ccccc2c1)N(CC(O)CN1CCOCC1)c1ccccc1 (centres unmarked) | -47.9
CN(C)CCC#CC(O)(c1ccccc1)c1ccccc1 | -32.1
C/C(=N\Nc1ccc([N+](=O)[O-])cc1)c1cc2ccccc2o1 | 1.78
COc1cc(=O)[nH]c(SCC(=O)Nc2nc3c(s2)CCCC3)n1 | 1.57
CCN(CC)CC(=O)Nc1c(Br)ccc2c1OCO2.Cl | 10
Cc1n[nH]c(=S)n1-c1ccccc1 | 17.2
COc1ccc(NC(=O)c2cc(C)nc3ccccc23)c(OC)c1 | 9.72
CCOc1cc(CNc2ccc(O)cc2)cc(Br)c1OCc1ccccc1F | 3.98
CN1CCN(S(=O)(=O)c2cccc(C(=O)Nc3nccs3)c2)CC1 | -1.22
O=C(O)c1ccc(N=Nc2c(O)[nH]c3ccccc23)cc1 | 8.76
CC(=O)Nc1ccc(S(=O)(=O)N2CCC(NC(=O)C(Cc3cccn3C)NC(C)=O)CC2)cc1 (centres unmarked) | 1.63
Cc1nc(C(=O)NNC(=O)Nc2ccc(Cl)cc2)cs1 | -0.711
COc1ccc(-c2csc(N(Cc3ccccc3)C(=O)COc3ccc(Cl)cc3)n2)cc1 | 4.31
CC(=O)Nc1nonc1-c1nc2ccccc2n1CC1CC1 | -6.11
NC(=O)CC(NC(=O)c1ccccc1)c1ccc(N2CCC(Br)CC2)c([N+](=O)[O-])c1 (centres unmarked) | -5.94

Structure (SMILES) | hERG current change (%, negative = inhibition) at 10uM [%]
CC(=O)N1N=C2/C(=C/c3ccccc3)CCCC2C1c1ccccc1 (centres unmarked) | -10.5
CCOC(=O)c1nc(C)nc(Sc2n[nH]c(-c3ccccc3)n2)c1C | -6.93
CCOC(=O)c1sc(NC(=O)CSc2n[nH]c(C)n2)nc1C | 14.5
COc1ccc(-c2c(C)oc3c(CN4CCOCC4)c(O)ccc3c2=O)cc1 | 7.31
COc1ccc(C2COC(=O)C2=N)c(NC(=O)c2ccc(Cl)cc2)c1 (centres unmarked) | -26.2
CCOC(=O)N1CCN(C(=O)COc2ccc3oc4c(c3c2)CCCC4)CC1 | -50.6
CC1=C(C)CC2C(C1)C(=O)c1ccc(Br)cc1S2(=O)=O (centres unmarked) | -16
OCCNc1nnc(-c2ccccc2)c(-c2ccccc2)n1 | 8.35
CCCc1nnc(SCC(=O)N2CCCCC2C)n1CC (centres unmarked) | 13.6
COc1ccccc1C(=O)Nc1ccc2c3c(cccc13)CC2 | -8.49
CS(=O)(=O)N(CC(=O)Nc1ccc(F)cc1F)C1CCCCC1 | 5.36
COc1ccc(C2(CNC(C)=O)CCOCC2)cc1OC | 22.4
Cc1cccc(OCCn2c(=O)n(C)c3ccccc32)c1 | -13.6
COC(=O)Nc1cc(C)nc2ccccc12 | 5.13
CCCn1c(C2CCCN2c2nc(-c3cccc(Br)c3)cs2)nc2ccccc21 (centres unmarked) | 1.54
Cc1cnc(NC(=O)CSc2nnc3ncccn23)s1 | 6.32
CCCC1=[N+](CC(=O)c2ccccc2)CCn2cccc21.[Br-] | 10.7
CCCCNC(=O)N1CCN(C(c2ccccc2)c2ccccc2)CC1 | 3.49
COc1cc(/C=N/O)cc(Br)c1OCc1ccc(Cl)cc1 | 4.06
N=c1c(S(=O)(=O)c2ccc(Br)cc2)cc2c(=O)n3ccccc3nc2n1Cc1ccccc1 | 27
CSCc1ccc(C(=O)NC(C)c2ccc(-n3ccnc3)cc2)cc1 (centres unmarked) | -56
CCOC(=O)Nc1ccc2c(c1)N(C(=O)CN(C)C)c1ccccc1CC2.Cl | -7.94
CCN(CC)c1ccc(N=Cc2cc(Br)ccc2O)cc1 | 14.1

Structure (SMILES) | hERG current change (%, negative = inhibition) at 10uM [%]
CN1CCCC(OC(=O)c2cc(F)c(F)c(F)c2F)C1.Cl (centres unmarked) | 10.5
CCN(C(=O)CSc1nnc(COc2ccccc2F)n1N)C1CCS(=O)(=O)C1 (centres unmarked) | 20.7
CCOc1ccccc1NC(=O)C(OC(=O)c1ccccc1O)c1ccccc1 (centres unmarked) | 12.5
CCN(CCCNC(=O)COc1cc(=O)n(CC)c2ccccc12)Cc1ccccc1 | -19.8
CCc1ccc(-c2cc(C(=O)NN3CCOCC3)c3ccccc3n2)s1 | -23.1
COc1ccc(-c2nnn(CC(=O)N(Cc3ccccc3Cl)C(C(=O)NCC3CCCO3)c3ccco3)n2)cc1OC (centres unmarked) | 20.8
Cc1ccc(N2CC(C(=O)N3CCOCC3)CC2=O)cc1Cl (centres unmarked) | 5.47
Cc1ccc(S(=O)(=O)NC2CC2)s1 | 2.73
O=C(Cc1c(F)cccc1Cl)Nc1ccccc1C(=O)N1CCCCC1 | -3.39
Cc1ccc(S(=O)(=O)N2CCCCC2)cc1NC(=O)COC(=O)c1ccc(=O)[nH]c1 | 3.23
Cc1ccnc(SCCn2c(N3CCN(Cc4ccccc4)CC3)nc3c2c(=O)[nH]c(=O)n3C)n1 | -36.5
CCOC(=O)Cn1c(=O)oc2cc(S(=O)(=O)N(CCN(C)C)Cc3ccccc3)ccc21 | -25.8
Cl.O=C(CCN1CCCC1)Nc1ccccc1 | 4.69
COc1ccccc1Oc1c(C)oc2cc(OC(=O)c3ccco3)ccc2c1=O | -19.5
CCc1nnc(SCC(=O)Nc2ccc(F)cc2)o1 | 10.3
C=CCOc1ccc(/C=N/O)cc1Cl | 4.43
O=C1C=C(NCc2ccc(Cl)c(Cl)c2)CC1 | -17.5
O=C(NNS(=O)(=O)c1ccccc1[N+](=O)[O-])c1cc2ccccc2cc1O | -10.9
COc1ccccc1/C=C(/CC(=O)NCc1ccc2c(c1)OCO2)c1nc2ccccc2s1 | 8.8
O=C(NCCc1ccccc1)c1ccc(-c2ccccc2C(F)(F)F)o1 | -10.9
